Experimental data taken from the supplement of paper PMC3334620.
In all, about 33,000 sequences were measured (“E-score (-0.5 to 0.5)”: median about -0.016, highest 2% from about 0.31 on). The list shows a part of the results.

target: Cst6 (UniProt P40535); assay: PBM E-score (8-mer binding enrichment) (E-score (-0.5 to 0.5)); higher = stronger / more preferred TF binding; most listed sequences are background and not binding sites; conditions: protein concentration: 200 nM; construct: GST-DNA-binding domain
In short: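 Masliner-normalised scans of fluorescent anti-GST signal were the basis for scoring. That signal came from GST-tagged yeast transcription factors applied at about 100-200 nM to double-stranded universal all-10-mer Agilent arrays on fresh or once-stripped slides. Each ungapped eight-base word, pooled with its reverse complement, received an E-score from the Universal PBM Analysis Suite.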

| Sequence | PBM E-score |
| --- | --- |
| ACGCAAGA | 0.122 |
| TCCTCGCA | -0.22 |
| CAAAGATG | -0.0508 |
| CCATCCTC | -0.0949 |
| AGTCCTGG | -0.272 |
| AACTTTGA | 0.124 |
| ACCCGTCG | -0.263 |
| AGGAAAGA | -0.106 |
| CGCATCTC | -0.022 |
| AGCACTCG | -0.351 |
| ACGGATAA | 0.205 |
| CCACTTCC | -0.0696 |
| AGTTTGAC | 0.0432 |
| ATCAAGAC | 0.114 |
| GAAACACA | 0.122 |
| GACCCATC | -0.183 |
| CGCGGAAA | 0.0185 |
| CAGCGACA | -0.24 |
| CTGCTGCA | -0.152 |
| CGCAGAAC | 0.208 |
| CATTTCGG | -0.106 |
| ACTTCCTG | -0.129 |
| GAATCAAA | -0.121 |
| ATACTTAC | 0.213 |
| CGATGCAG | -0.141 |

| Sequence | PBM E-score |
| --- | --- |
| TAATGCCA | 0.197 |
| GCCTCAAC | -0.0374 |
| ACTTATCA | -0.0145 |
| ATAAGGGG | -0.114 |
| TAGACACA | -0.101 |
| AGTTGTCA | 0.205 |
| TCTATCCA | -0.0177 |
| CAGGGGGG | -0.413 |
| AGCTATTG | -0.0728 |
| CCTACCGC | -0.16 |
| AGGTGTTC | -0.181 |
| ATGTCGCA | -0.0497 |
| CAGAGGGA | -0.291 |
| CGGAACAC | 0.0157 |
| AGTCGTTG | -0.171 |
| ATACGCGC | 0.064 |
| AAGAAGAA | 0.0641 |
| GCGATATA | 0.085 |
| CGTCACCC | 0.466 |
| CATAGCGA | -0.0109 |
| GTCCCTGA | -0.178 |
| AGGTGGGG | -0.0662 |
| CACAGTTC | -0.122 |
| CACTTTCG | 0.2 |
| AAAATGGC | 0.175 |

| Sequence | PBM E-score |
| --- | --- |
| GAGATGGC | 0.051 |
| GTCCAGAA | 0.0316 |
| ATGACTGG | -0.216 |
| CCGTCCCG | -0.219 |
| GAGCTATC | -0.129 |
| CCTTATGC | 0.0524 |
| GCGGCGGA | 0.0162 |
| TGCATTAA | 0.21 |
| TCTTACCA | -0.00252 |
| CAAGTAGA | -0.229 |
| AGGGACGA | 0.0201 |
| CCGGCAAC | -0.0928 |
| CTAGGAAA | -0.0799 |
| ACCCCGAC | -0.311 |
| CGGGCTAA | -0.18 |
| TAATAGAA | 0.152 |
| AGTCGAGG | -0.135 |
| ACTTACCA | -0.0152 |
| CCTTGGGA | -0.133 |
| CTCAACTA | 0.0351 |
| AGGGTCAG | -0.285 |
| AGACAGAC | 0.27 |
| GTAGACTA | -0.249 |
| ATATAGAA | 0.172 |
| GAACGAAC | 0.0931 |

| Sequence | PBM E-score |
| --- | --- |
| AAAGTCCA | -0.128 |
| AGCCTGGA | -0.278 |
| AATCCCTA | -0.0579 |
| AGGGCTAG | -0.242 |
| ACTATCCT | -0.0869 |
| GGCGATAA | 0.0598 |
| CACATCCC | -0.273 |
| ATGATGAA | 0.367 |
| AGGCCGAA | -0.171 |
| GACATTAC | 0.197 |
| CTCTGGTA | -0.21 |
| AGCCGTGG | 0.00348 |
| ACAAGGTG | 0.12 |
| GACGAGGA | -0.0483 |
| TATCGCGA | -0.0421 |
| ACCAACTG | -0.0621 |
| AGATCGTC | -0.112 |
| CATAGTGG | -0.139 |
| AGAAGCAG | -0.138 |
| TGCATGAA | 0.0867 |
| CCACTAAC | 0.0558 |
| CACCGTCG | -0.174 |
| AGCAGATA | 0.0165 |
| CTTGCATA | 0.163 |
| ATTTTGAA | 0.223 |

| Sequence | PBM E-score |
| --- | --- |
| GACTCAAC | 0.0642 |
| ATTTACGG | 0.238 |
| GATACAAC | 0.211 |
| AAAGAGGT | 0.0339 |
| ACCACTAT | -0.178 |
| AAGGGATT | -0.0403 |
| ACTGAGGA | -0.163 |
| ACCCAGCG | -0.12 |
| ATTTAGCC | 0.0684 |
| CCATTTAC | 0.105 |
| GGGGATCA | -0.158 |
| CAAAGCAC | -0.0689 |
| CTGTCTTC | -0.156 |
| ACTTCGGG | -0.19 |
| AAAGTCCC | -0.259 |
| ACCTTGCT | -0.0896 |
| ATATGGAT | 0.101 |
| TAGCGGAA | -0.155 |
| ATCCACTG | -0.0682 |
| ACAGCTAG | -0.256 |
| CGGCACGC | 0.0275 |
| AAAGTTCA | -0.0506 |
| ACTTTACG | 0.198 |
| TGCCAAAA | 0.0693 |
| CGTGGGAA | 0.0103 |

| Sequence | PBM E-score |
| --- | --- |
| GTATTAAC | -0.0108 |
| GATAGAGC | -0.0398 |
| CCCGAATA | -0.00448 |
| AAGTAGAC | -0.199 |
| AAATTATT | 0.314 |
| TGCTGTAA | 0.0304 |
| AACCTGAA | -0.181 |
| CATGGCAA | 0.0585 |
| GCCGAACA | 0.0201 |
| TTCAACAA | 0.235 |
| CCAACTAG | -0.0658 |
| ACACAGGG | -0.037 |
| GGGCTTGA | -0.178 |
| CCAATTGC | 0.00419 |
| AGAGACTG | -0.253 |
| AGTTAGAT | 0.117 |
| ATCACCGC | 0.128 |
| ACCGAGCA | -0.0929 |
| ACTCGCCA | -0.037 |
| GGAATGCA | -0.0434 |
| ACGAGTTG | 0.0374 |
| ACGCGTTA | 0.0401 |
| GTTTATCA | 0.208 |
| GGGCGAAA | 0.00936 |
| ATTCTGCC | 0.124 |

| Sequence | PBM E-score |
| --- | --- |
| CAGAGACC | -0.059 |
| AATAGAAG | -0.0496 |
| TAGCAGGA | -0.17 |
| AAGTTCTG | 0.0297 |
| CTTAGAAA | 0.101 |
| CTGGATAC | -0.123 |
| CTGCTCGC | -0.251 |
| CGCGCGGA | 0.131 |
| CTCGCCTC | -0.0401 |
| AACCTCGG | -0.0342 |
| GGTTAGAC | -0.154 |
| ATTATAGA | 0.2 |
| CACTTAGG | -0.0458 |
| CGGTTACG | 0.14 |
| CTCTTCGC | -0.241 |
| CAGGGGAG | -0.243 |
| AGGGTTCC | -0.287 |
| ACAATAAC | 0.196 |
| CCGGCGAC | -0.327 |
| GCAACTCA | -0.0113 |
| CTACCCAG | -0.256 |
| CCGCATCC | -0.00385 |
